This note sets out measurements from the supplement of paper PMC11417369.

The other results are listed elsewhere or left out.

This test deals with PfAP2-HC AP2 domain (GST-tagged). In words: gcPBM binding intensity (ln(normalized median fluorescence intensity)); higher = stronger DNA binding. The gist of the method: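 Using an Agilent 4 × 180k array, primer-extended double-stranded 36-bp intergenic genomic probes and negative controls were exposed for 1 h to GST-fused P. falciparum DNA-binding domains expressed in E. coli. Binding was carried out in 1× PBS with 1% milk, 0.2 mg/ml BSA, 0.5% salmon testes DNA and 0.03% Triton X-100, and protein was detected with Alexa488 anti-GST antibody and a 488 nm scan. Binding intensity is the highest Masliner-normalised natural-log median intensity across replicate spots of either probe orientation.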
For “ATATATATAAATAATTGTACTTAAAAAAAAAAAAGG [XGTACX_site6847]”, the “gcPBM binding intensity (ln)” value was determined as 9.69.
Under “AACAGCATATCACATTTCTTCAAAAAAAAATAAAAT [CACACA_negctrl_site733]” stands 9.47; under “TGTAGAGCGCAAAGTAGTACTACAAATTATGGAGGG [XGTACX_site3022]”, 9.81; under “TTTGTTAAAAATATATTATGAATAAAAATATATTTT [CACACA_negctrl_site170]”, 9.33.
Regarding “TTAAAACATAAAAAAAGTACATACAAATATATATAA [XGTACX_site789]”, the “gcPBM binding intensity (ln)” value was determined as 9.76.
With “TATGTCAATCAAGCAAGTACATATATATATAAATAT [XGTACX_site7554]”, the “gcPBM binding intensity (ln)” value came to 9.58.
Under “TACAAAATAACTAGCACACATATGTATAAACATATA [CACACA_site5948]” stands 9.85; under “AATTATATTACGAAATGTACATATAATAATGTATAT [XGTACX_site4410]”, 9.71.
Regarding “GCCATTGTACCATCCACACACATATATATATGTATA [CACACA_site2704]”, the “gcPBM binding intensity (ln)” value turned out to be 10.1.
Under “TTCAAAACTTAAAATCGTACAAGACAATTATTATAT [XGTACX_site6626]” stands 9.43; under “ATATTAAATTCAATTTAATGTTTTGTGAATTTTAGA [CACACA_negctrl_site1421]”, 9.39.
“TTAAATGGAAAAATATGTACATATATATATATATTT [XGTACX_site2286]”: the “gcPBM binding intensity (ln)” value turned out to be 9.59.
Next, “TGAACTCATAGATTTAGTACATATATAAAAAAATTC [XGTACX_site1692]”: 9.38; “TAAACACCCATATAAACACACATACATACATACATA [CACACA_site5383]”: 10.4; “GATTAATTTAAAAAATGTACATTTTATTGTATAACC [XGTACX_site5539]”: 9.7.
Under “CCAAGAAACCAAAAAAGTACATACATGGTTATAATT [XGTACX_site4249]” stands 9.8; under “ACAATATGTATATATATATATATGCAAATGTATAAA [CACACA_negctrl_site53]”, 9.78; under “GCAGCAGCATTTTCAGTGCATTATTATATTGTTCAT [GTGCAC_site9926]”, 9.75.
Under “GTAATAAAATGACATACATGCATTACAATTATGTAA [TGCATGCA_site220]” stands 9.72; under “TATTATAATACTTATTGTACTTTTAGGTTAATTTAT [XGTACX_site995]”, 9.65.
Turning to “GTGTACTTTTAAATAGTGCATTTTACAATAATAAAA [GTGCAC_site9653]”, the “gcPBM binding intensity (ln)” value is 9.32.
Next, “GTTGCACAATGTTACACACACAATATATATCGTTAA [CACACA_site1275]”: 9.95; “TAGTATTAAATATATACACACATATATACATATAGA [CACACA_site2154]”: 9.86.
On to “TTAATTTTTTTTTCTTGTACACACTATTTTATAATT [XGTACX_site8783]”, for which the “gcPBM binding intensity (ln)” value amounted to 9.96.
Take “AATTGTACGTAGGGGTATAAAAGCTTAAAAATGGGG [CACACA_negctrl_site1392]”: the “gcPBM binding intensity (ln)” value worked out at 9.72.
Turning to “AAAGCAAAAGGAAAATAACCAACCCTAATTAACACA [CACACA_negctrl_site530]”, the “gcPBM binding intensity (ln)” value came to 10.
With “CCCTTTTTTTTTTAATGTACATATAATTATATATTT [XGTACX_site8568]”, the “gcPBM binding intensity (ln)” value was 9.88.
Under “GGAAACCTTTTTTTTACACACAATATATTAAGACTT [CACACA_site4899]” stands 9.8; under “AGATATCTTGTGAAATAAAAAAAATAATTGCTTATA [CACACA_negctrl_site798]”, 9.46.
Next, “AAATTAGACTATAATACACACATAAAAAAAAAAAAA [CACACA_site6155]”: 9.88; “TCCTTCGAAACTAAAATTCATTTAAAATATTGATAT [CACACA_negctrl_site369]”: 9.37.
“AAAGAAAAAAAAATTACACACATATATTATAGATAT [CACACA_site7495]”: the “gcPBM binding intensity (ln)” value was found to be 9.82.
Next, “TACATACATACATACACACACACATATATATATATA [CACACA_site42]”: 10.2; “TAGGTCCTCATTTTATGTACATAAAGAAATATGATT [XGTACX_site4138]”: 9.47; “TATTTATAGATATATACACACATATACATATTGTTT [CACACA_site7611]”: 10.1.
In the case of “ATATAAACATTTAGTAATCCATATAGGTACTACTGA [CACACA_negctrl_site1249]”, the “gcPBM binding intensity (ln)” value turned out to be 9.54.
In the case of “AAAAAAAATATATAAACACACATATTTATATACGCA [CACACA_site1631]”, the “gcPBM binding intensity (ln)” value turned out to be 9.93.
Under “ATATATGCTAATATATGTACTGATTATATCTCTTCA [XGTACX_site7156]” stands 9.57.
Next, “ATATTATATTATTAATGTACATATATATAATTTTAA [XGTACX_site4974]”: 9.44; “AGAAATGAAATCCAAAAACGAGGAACCAATAACGCA [CACACA_negctrl_site1758]”: 9.98; “TCTTATCCATATATTACACACTATATATAGAAATTA [CACACA_site291]”: 9.73.
Next, “AAGGCAAACAAACACACACACATATATACCTATATA [CACACA_site5203]”: 10.4; “ATTAATTTAATTTGAATTATTTTATTATATTATTAT [XGTACX_negctrl_site10]”: 9.37; GTTTGAATATATCAGGTGCATTTATAATTCATATGA: 9.45.
